Laboratory results as given in article PMC4336329 (PLoS ONE, 2015).
Screen size: about 310,000 compounds; about 14,000 (4.5%) showed an effect of 50% or more. Effects have a minus sign here. This is one part of the list.

molecular target: human ether-à-go-go-related gene (hERG) potassium channel (human, UniProt Q12809); experiment: primary screen, population patch clamp on CHO cells stably expressing hERG
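Note: peak tail current of the secondary pulse compared with the same well before compound.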

Chain of human ether-à-go-go-related gene (hERG) potassium channel (Q12809 whole entry, looked up): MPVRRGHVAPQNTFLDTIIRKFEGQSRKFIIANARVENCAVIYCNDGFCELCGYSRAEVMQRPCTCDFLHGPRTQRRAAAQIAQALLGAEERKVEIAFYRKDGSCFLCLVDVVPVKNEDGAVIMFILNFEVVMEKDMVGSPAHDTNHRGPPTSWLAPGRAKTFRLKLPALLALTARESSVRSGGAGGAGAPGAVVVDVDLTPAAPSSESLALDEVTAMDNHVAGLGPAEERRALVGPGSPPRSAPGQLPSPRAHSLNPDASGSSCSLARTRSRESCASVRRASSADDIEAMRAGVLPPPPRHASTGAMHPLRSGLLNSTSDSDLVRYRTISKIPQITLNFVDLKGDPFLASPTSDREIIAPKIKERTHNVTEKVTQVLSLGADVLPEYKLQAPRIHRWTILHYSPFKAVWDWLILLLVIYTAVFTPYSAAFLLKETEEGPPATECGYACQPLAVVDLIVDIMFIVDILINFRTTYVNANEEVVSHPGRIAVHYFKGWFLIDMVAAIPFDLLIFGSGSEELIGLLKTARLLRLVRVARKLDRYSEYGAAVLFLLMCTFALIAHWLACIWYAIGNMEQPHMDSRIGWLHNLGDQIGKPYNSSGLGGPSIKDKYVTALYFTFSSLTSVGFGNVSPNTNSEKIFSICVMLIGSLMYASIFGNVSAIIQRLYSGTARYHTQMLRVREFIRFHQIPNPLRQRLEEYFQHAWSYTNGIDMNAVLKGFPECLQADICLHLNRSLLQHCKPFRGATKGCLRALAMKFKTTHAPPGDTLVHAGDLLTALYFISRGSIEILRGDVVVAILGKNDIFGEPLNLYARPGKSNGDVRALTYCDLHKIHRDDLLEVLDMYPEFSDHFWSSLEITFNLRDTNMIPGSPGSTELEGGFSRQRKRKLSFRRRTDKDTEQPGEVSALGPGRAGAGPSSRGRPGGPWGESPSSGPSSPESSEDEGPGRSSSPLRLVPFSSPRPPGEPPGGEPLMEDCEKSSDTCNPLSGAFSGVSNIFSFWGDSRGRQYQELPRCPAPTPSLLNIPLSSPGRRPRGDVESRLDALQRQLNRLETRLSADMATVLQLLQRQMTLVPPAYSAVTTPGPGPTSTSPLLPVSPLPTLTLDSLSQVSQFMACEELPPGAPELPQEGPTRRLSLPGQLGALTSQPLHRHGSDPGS

SMILES	hERG current change (%, negative = inhibition) at 10uM
O=C(NC1CCS(=O)(=O)C1)c1cccs1 (centres unmarked)	22.2%
CC(C(=O)NCCSCc1cccc(Cl)c1)N(c1ccccc1)S(C)(=O)=O (centres unmarked)	-15%
C=CCc1c(NCCO)nc(C)[nH]c1=O	12.5%
COc1ccc(CCN2C(=O)NC(NC(=O)CCc3ccccc3)(C(F)(F)F)C2=O)cc1OC (centres unmarked)	-4.65%
Cl.O=C(NN1CCN(Cc2ccccc2Cl)CC1)c1ccc(Cl)cc1	-10.6%
Clc1ccc(-c2nnc(Sc3nc4ccccc4o3)c3ccccc23)cc1	-2.83%
O=C(CSc1c2c(nc3ccc(Cl)cc13)CCCC2)NCCCN1CCOCC1	-7.17%
Cc1cc(C)c2nc(-c3ccccn3)cc(C(=O)n3cccn3)c2c1	22.9%
Nc1cc[n+](CC(=O)Nc2ccccc2)cc1.[Cl-]	9.51%
CC(O)[C@H]1CN=C(N)N1CC1CCCCC1 (some centres unmarked)	-2.41%
COc1ccc(/C=C2/C(=O)OCc3cc(OC)c(OC)cc32)cc1	-39.3%
COC(=O)c1cc(NC(=O)CSc2nncn2C)cc(C(=O)OC)c1	-8.96%
Cc1cc(C)cc(NC(=O)CSc2nc3[nH]ncc3c(=O)[nH]2)c1	11.8%
COc1ccc(S(=O)(=O)N2CCC(C(=O)Nc3nccs3)CC2)cc1	8.87%
COc1ccc(CNC(=O)c2cc(=O)c3cc(C)ccc3o2)cc1	2.27%
CC1CC(C)(C)CC2(C1)NC(=O)N(CC(=O)N(Cc1ccccc1)c1ccccc1)C2=O (centres unmarked)	-5.59%
COc1ccc(N2CCN(C(=O)CNC(=O)c3ccc(Br)o3)CC2)cc1	-6.01%
CCCCCC(=O)N/N=C/c1ccco1	9.79%
CC1CC(C)CN(CC(O)COCc2ccccc2)C1.Cl (centres unmarked)	-7.79%
O=C(NNC(=S)Nc1ccccc1)c1ccc(O)cc1	15.9%

SMILES	hERG current change (%, negative = inhibition) at 10uM
CCN1CCN(CCCNC(=O)c2cc3sccc3n2CC)CC1	-40.8%
O=c1[nH]cnc2sc3c(c12)CCC3	12.2%
CC(NC(=O)c1c(F)cccc1Cl)c1ccc(-n2ccnc2)cc1 (centres unmarked)	-27%
O=C(/C=C/c1c[nH]c2ccccc12)c1ccccc1	16.2%
O=C(O)c1cccc(N2C(=O)C3CC=C(Cl)CC3C2=O)c1 (centres unmarked)	3.3%
COc1ccc(C(C#N)N2N=C(C)CC2c2ccccc2)cc1OC (centres unmarked)	-5.58%
C1=C[C@@H]2CCN(Cc3ccccc3)Cc3cccc(c32)C1	-50.6%
COc1cccc(C(O)c2nccn2Cc2ccccc2)c1OC (centres unmarked)	15.6%
CSc1nc2ccc(NC(=O)C3CC(=O)N(Cc4ccco4)C3)cc2s1 (centres unmarked)	-44.6%
COc1ccc(CCNC(=O)C2CCC(CNS(=O)(=O)c3ccccc3)CC2)cc1OC (centres unmarked)	-18.4%
C=CCc1ccc(OCCOc2ccc(/C=N/n3cnnc3)cc2OCC)c(OC)c1	6.66%
CC(C)(C)c1cc(N)n2nc(C(C)(C)C)cc2n1	24.6%
O=S(=O)(Nc1ccc2c(c1)nc1n2CCOC1)c1ccccc1	-7.78%
COC(=O)CCN(C(=O)c1ccc(Cl)c([N+](=O)[O-])c1)c1ccccn1	-12.2%
O=C(c1ccccc1Br)N1CCN(Cc2ccc3c(c2)OCO3)CC1	6.79%
Clc1cccc(-c2csc(Nc3cccnc3)n2)c1	9.82%
CCCCC(=O)Nc1cccc(-c2nnc(-c3ccccc3)o2)c1	-31%
COc1ccc(N(CC(=O)Nc2cc(Cl)ccc2OC)S(=O)(=O)c2c(C)[nH]c(=O)[nH]c2=O)cc1	9.92%
COc1ccc(/C=C2\SC(=S)N(NC(=O)c3ccncc3)C2=O)cc1OC	-3.31%
Cc1ccc(NC(=O)Cn2cc(C(F)(F)F)cc(Cl)c2=O)cc1Cl	20.1%

SMILES	hERG current change (%, negative = inhibition) at 10uM
COc1ccc(C(C(=O)Nc2ccc(F)cc2)N(C(=O)Cn2nnc3ccccc32)C2CC2)cc1 (centres unmarked)	-45.6%
O=S1(=O)CCN2N=C(C34CC5CC(CC(C5)C3)C4)SC2=N1	12%
COc1ccc(NC(=O)N2CCC(c3ccccc3)C2)c(OC)c1 (centres unmarked)	-1.5%
CCOP(=S)(OCC)Oc1cc(C)oc(=O)c1Cl	19.6%
C=CCNc1nc(N)c(C(=O)c2ccc3c(c2)OCO3)s1	-19.7%
O=C(O)CN1C(=O)C(=O)N(Cc2cccc(F)c2)C1=O	18.8%
CC(=O)Nc1ccc(NC(=O)C2CC(=O)N(c3cccc(C)c3C)C2)cc1 (centres unmarked)	9.48%
Cc1ccc(S(=O)(=O)NCC(=O)N(CC(=O)NCC2CCCO2)c2ccc(Cl)cc2)cc1 (centres unmarked)	-28.7%
NS(=O)(=O)c1ccc(NC(=O)CN2CCCCC2)cc1	-2.19%
COc1ccc(CSc2nnc(-c3ccncc3)n2C)cc1F	12.1%
Cc1nc(=O)c(-c2ccccc2)c(C)n1CCO	18.6%
CCOC(=O)c1c(C)nc(-c2ccccc2)nc1NC(=O)C(C)C	5.9%
C=CCN1C(=O)N(/C=C/C)c2cccc3cccc1c23	8.89%
CCOC(=O)C1C(=O)OC(C)(C)C1C(CC)C(=O)c1c(C)cc(C)cc1C (centres unmarked)	-7.51%
O=C(O)CCc1ccc(-c2cccs2)n1NC(=O)c1ccc(O)cc1	-6.38%
O=S(=O)(NC1CC1)c1ccc(Cl)cc1F	8.33%
CC1C(=O)NN=C1C(=O)N/N=C/c1ccco1 (centres unmarked)	7.6%
CCOC(=O)[C@@H]1C(c2c(OC)cc(OC)cc2OC)=NO[C@@H]1C(=O)OCC	-9.78%
O=c1c(-c2c(O)cc(O)c3c(=O)cc(-c4ccc(O)cc4)oc23)c(-c2ccc(O)cc2)oc2cc(O)cc(O)c12	21.9%
